{
  "source": "patent US20220288124A1",
  "about": "(AUGUSTA UNIVERSITY RESEARCH INSTITUTE, published 2022)",
  "binders": {"B1": {"name": "6G11-CAR (second generation chimeric antigen receptor on human T cells) (other)", "chain": "DIQMNQSPSSLSASLGDTITITCHASQNINVWLSWYQQKPGNIPKLLIYKASNLHTGVPSRFSGSGSGTGFTLTISSLQPEDIATYYCQQGQSYPWTFGGGTKLEIKRGGGGSGGGGSGGGGSQVQLQQPGSELVRPGASVKLSCKASGYTFTSCWMHWVKQRPGQGLEWIGNIYPGYGNTNYDEKFKNKATLTVDTSSSTAYMQLSGLTSEDSAVYYCTRGSYLYAMDYWGQGTSVTVSSTTTPAPRPPTPAPTIASQPLSLRPEACRPAAGGAVHTRGLDFACDFWVLVVVGGVLACYSLLVTVAFIIFWVKRGRKKLLYIFKQPFMRPVQTTQEEDGCSCRFPEEEEGGCEL[sequence of about 120 residues not given]", "notes": "In '1 and 22', 1 is the nucleic acid and 22 the protein (claims 15-16); also called 6G11 CARTs; 6G11 CAR+ T cells"}, "B2": {"name": "12D7-CAR (second generation chimeric antigen receptor on human T cells) (other)", "chain": "DIVMTQSQKFMSTSVGDRVSVTCKASQNVGTNVAWYQQKPGQSPKALIYSASYRYSGVPDRFTGSGSGTDFTLTISNVQSEDLAEYFCQQYNSYPLTFGAGTKLELKRGGGGSGGGGSGGGGSQVQLQQPGSELVRPGASVKLSCKASGYTFTSYWMHWVKQRLGQGLEWIGNIYPGSGSTNYDEKFKSKGTLTVDTSSSTAYMHLSSLTSEDSAVYYCTRGDYDWVFAYWGQGTLVTVSATTTPAPRPPTPAPTIASQPLSLRPEACRPAAGGAVHTRGLDFACDFWVLVVVGGVLACYSLLVTVAFIIFWVKRGRKKLLYIFKQPFMRPVQTTQEEDGCSCRFPEEEEGGCEL[sequence of about 120 residues not given]", "notes": "also called 12D7 CARTs; 12D7 CAR+ T cells"}, "B3": {"name": "8F8-CAR (second generation chimeric antigen receptor on human T cells) (other)", "chain": "DVVMTQTPLTLSVTIGQPASISCKSSQSLLDSDGETYLNWLLQRPGQSPKRLIYLVSKLDSGVPDRFTGSGSGTDFTLKISRVEAEDLGVYYCWQGTHFPLTFGAGTKLELKRGGGGSGGGGSGGGGSEVKLVESGGDLVKPGGSLKLSCAASGFTFSRYGLSWVRQTPEKRLEWVATISGSGSYTYYPDSVKGRFTISRDNAKNNLYLQMSSLRSEDTALYYCVRRGTYGYDNWGQGTTLTVSSTTTPAPRPPTPAPTIASQPLSLRPEACRPAAGGAVHTRGLDFACDFWVLVVVGGVLACYSLLVTVAFIIFWVKRGRKKLLYIFKQPFMRPVQTTQEEDGCSCRFPEEEEGGCEL[sequence of about 120 residues not given]", "notes": "also called 8F8 CARTs; 8F8 CAR+ T cells"}},
  "key": {"[1]": {"target": "hGPC3 on the surface of HCC tumor cells (HepG2; hGPC3low Huh7) (human, UniProt P51654 25-554)", "assay": "cell-based or functional assay"}, "[2]": {"target": "T1, soluble hGPC3 protein (recombinant human glypican 3) (human, UniProt P51654 25-560, limits assumed)", "T1 construct": "The construct used in ELISA and BLI and as FITC-labelled protein is not further defined; also called rhGPC3; FITC-labeled hGPC3", "assay": "flow cytometry of CAR-transduced T cells stained with FITC-labeled hGPC3; Mock-T 0.70%", "excerpt": "GS linker: glycine-serine linker; TM:transmembrane domain of CD28. FIG. 5B is an illustration of the experimental procedure. Human T cells were isolated from PBMC and activated by CD3/CD28 beads for 24 hrs. On day 0, T cells were transduced with lv and CAR expression was monitored from day 3-13. FIG. 5C is a panel of dot plots after CAR gene transduction at different time points were presented. CAR expression was detected by anti-mouse Fab antibody at indicated time points. This experiment was repeated at least 5 time with similar observations. FIGS. 5D and 5E are dot plots showing CAR molecules on the transduced T cells were stained with anti-mouse Fab antibody (A) or FITC-labeled hGPC3. Mock transduced T cells were used as control. FIG. 5F is a graph showing the percent of CAR+ T cells that could bind hGPC3 protein.\nThe following antibodies were used in the staining: anti-human CD45, anti-mouse CD45, anti-mouse Fab, hGPC3 protein. Cells were stained with indicated antibodies and analyzed on LSR flow cytometer. Goat anti-mouse Fab antibody (Jackson ImmunoReseach Lab) and FITC-labeled hGPC3 were used to determine CAR transduction and the binding of CAR to cognate antigen."}},
  "data": [
    {"binder": "B1", "values": [
      {"measurement": "fold change of % CAR+ T cells 6 days after HepG2 stimulation", "setting": "[1]", "result": 6, "unit": "fold"},
      {"measurement": "% of GPC3-positive cells", "setting": "[2]", "result": 66.7, "unit": "%"}
    ]},
    {"binder": "B2", "values": [
      {"measurement": "fold change of % CAR+ T cells 6 days after HepG2 stimulation", "setting": "[1]", "result": "~4", "unit": "fold"},
      {"measurement": "% of GPC3-positive cells", "setting": "[2]", "result": 25.6, "unit": "%"}
    ]},
    {"binder": "B3", "values": [
      {"measurement": "% of GPC3-positive cells", "setting": "[2]", "result": 12.9, "unit": "%"}
    ]}
  ]
}
